Measurements from the supplement of paper PMC6135742.
Where a name gives a salt, the structure may show the parent alone. The full ranking holds about 2,600 compounds; the median of “total cell number (DAPI+ nuclei) relative to DMSO vehicle control” is about -1.4, and the lowest 2% start at about -23. The list shows a part of the results.

system: jimpy (Plp1 jimpy) mouse iPSC-derived oligodendrocyte progenitor cells; experiment: total cell number (DAPI+ nuclei) relative to DMSO vehicle control (SDs above negative control mean); higher = more surviving cells; settings: 10 µM; 3 days
Protocol: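 Primary phenotypic screen of >3,000 bioactive compounds (Selleck L1700 and Sigma LO1280 libraries) at a single dose of 10 µM. Compounds were added to jimpy (Plp1 mutant) mouse iPSC-derived OPCs at the start of thyroid hormone-induced oligodendrocyte differentiation, one well per compound in 384-well plates. After 3 days cells were stained for MBP, Sox10 and DAPI and imaged with an Operetta system. MBP+ oligodendrocyte number and total cell number were expressed as the number of SDs above the mean of the DMSO negative control on the same plate (n=16 control wells per plate). Hits were defined as >=4 SD for oligodendrocytes and >=2 SD for total cells.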

Row | SMILES | total cell number
1 | N#Cc1ccc(N2CCN(C(=O)COc3ccc4[nH]cc(CCN)c4c3)CC2)cc1 [Donitriptan monohydrochloride] | -1.25
2 | O=C(N[C@H]1CN2CCC1CC2)c1ccc(Cl)cc1 | -0.978
3 | O=[N+]([O-])c1ccc2nc(N3CCNCC3)ccc2c1 [Quipazine, 6-nitro-, maleate] | -3.81
4 | c1cc2c(cc1[C@H]1OC[C@H]3[C@@H]1CO[C@@H]3c1ccc3c(c1)OCO3)OCO2 [Sesamin] | -1.28
5 | C=C(C)[C@H]1CN[C@H](C(=O)O)[C@H]1CC(=O)O [Kainic acid] | 1.03
6 | O=C(N[C@H]1CN2CCC1CC2)c1cc2ccoc2cn1 | -0.512
7 | Cc1cc(O)ccc1Cl [Chlorocresol] | -0.703
8 | O=[N+]([O-])c1cc(O)c(O)c([N+](=O)[O-])c1 [3,5-Dinitrocatechol] | -1.21
9 | CN[C@@H]1C[C@@H](c2ccc(Cl)c(Cl)c2)c2ccccc21 [Indatraline hydrochloride] | -4.83
10 | Nc1nc(N)nc(NC2CC2)n1 [Cyromazine] | 0.84
11 | CN1[C@@H]2CC[C@H]1C[C@@H](OC(=O)[C@H](CO)c1ccccc1)C2 [Hyoscyamine] | -0.387
12 | CN1[C@@H]2CC[C@H]1C[C@@H](OC(=O)[C@H](CO)c1ccccc1)C2 [L-Hyoscyamine] | -0.725
13 | Fc1cc(F)c2c(c1)[C@H]1C=CC[C@H]1C(c1cccnc1)N2 (stereo not given in full) [Golgicide A] | -14.2
14 | CC(C)N(CCC(C(N)=O)(c1ccccc1)c1ccccn1)C(C)C (stereo not given) [Disopyramide] | 0.766
15 | CC(C)N(CCC(C(N)=O)(c1ccccc1)c1ccccn1)C(C)C (stereo not given) [Disopyramide phosphate] | 1.43
16 | O=[N+]([O-])/C=C/c1ccc2c(c1)OCO2 | -7
17 | N=C(N)NN [Aminoguanidine hydrochloride] | -2.31
18 | N=C(N)NN [Aminoguanidine hemisulfate] | -1.28
19 | C=CCN1C[C@H](C)N([C@H](c2ccc(C(=O)N(CC)CC)cc2)c2cccc(OC)c2)C[C@H]1C | 2.36
20 | CC(Cc1ccc(OCC(=O)O)cc1)NCC(O)c1cccc(Cl)c1 (stereo not given) | -1.76
21 | CC(C)=CCOc1c2occc2cc2ccc(=O)oc12 [Imperatorin] | -0.604
22 | CNCC(O)c1ccc(O)cc1 (racemic) [(±)-Synephrine] | -0.771
23 | CCCN1CCC[C@@H]2Cc3nc(N)ncc3C[C@H]21 [Quinelorane dihydrochloride] | -1.4
24 | C=CC[C@]1(O)CC[C@H]2[C@@H]3CCC4=CC(=O)CCC4=C3C=C[C@@]21C [Altrenogest] | -0.73
25 | C1CCc2nnnn2CC1 [Pentylenetetrazole] | -1.24
